This passage reports binding signal results from publication PMC12136788.

B1: chr16:50751694:50751795:+|CDS|ENSG00000083799|unk|FALSE|unique (ssRNA)
RNA: GGGAGUUCUACAGUCCGACGAUCGCUUUUUCAGUGUGAUGAAGAUUGUGGCGUGUUUGUUGCAUUGGACAAGCUAGAACUCAUAGAAGAUGAUGACACUGCAUUGGAAAGUGAUUACGCAGGUCCUGGGGACACAAUGCAGGUCAACAGAGGAUUGAGCAUCA
B2: chr1:45660322:45660423:-|5pUTR|ENSG00000159592|unk|FALSE|unique (ssRNA)
RNA: GGGAGUUCUACAGUCCGACGAUCUCCCCUUCCCCCCUUCCCCUUUUCCCCUUUCCCCUUUUGGAAACGUGUCAGGAACCAAAUAGUUUAAGAUGAGCAGUUGAGGGGACUGAGAGAGUGAUCGACACAGAACCUGGCUUCUUCCAACAGAGGAUUGAGCAUCA
B3: chr13:19825080:19825183:-|CDS|ENSG00000132950|unk|total|mutant (ssRNA)
RNA: GGGAGUUCUACAGUCCGACGAUCUUUCCGAGAAGAAAAUGAGAAACAAUUAUAUGGAUCGUCAAAUACACUUUUGAAAAAAACCGAGGGAAUCCCAGAAAAAAAGGAAAAGACUUCACAGCUACAGCUUUCAGCCGAAUGUGGCAACAGAGGAUUGAGCAUCA
B4: ENSG00000198589:be:win_2651|CDS|ENSG00000198589|bound_else_gene|NA|bound_elsewhere_windowed (ssRNA)
RNA: GGGAGUUCUACAGUCCGACGAUCAAAAGAUAACAGAAAUGGUAUACGCCAUAUUCAGAAUCCUGCUUUACCAUGCAGUCAAAUAUGAGUGGGGUGGCUGGCGUGUAUGGGUAGACACUUUAUCAAUCACUCAUUCAAAGGUCACAACAGAGGAUUGAGCAUCA
B5: chr1:119913532:119913650:-|3pUTR|ENSG00000134250|msi1|total|mutant (ssRNA)
RNA: GGGAGUUCUACAGUCCGACGAUCUCAUGCUCUUGGCAAUUUCUUUGACUUUCUUUUAAGGGCAGAAGCAUUUCCGUUAAUUGCCGAUAAAGAACCGUUUUCUUCCUCUUCUCCUUGGGCCAGUUAAUAAUUGGUCCAUGGCUACAACAGAGGAUUGAGCAUCA
B6: chr3:124966548:124966651:-|3pUTR|ENSG00000173706|unk|total|mutant (ssRNA)
RNA: GGGAGUUCUACAGUCCGACGAUCAGGAAGAAUGCAAAGUUCAGUAUUUCAAUACUUUGUAUUUUACUUGAAAUUACCCUCCGCCGCAUCUUUUUUUUCCUGUCUGAAAGCUUUUGUGUGGAUGAGAAGGGACAUUUCAUUUCCCAACAGAGGAUUGAGCAUCA
B7: chr9:125236489:125236593:-|3pUTR|ENSG00000044574|msi1_unk|FALSE|overlapping (ssRNA)
RNA: GGGAGUUCUACAGUCCGACGAUCUGUAGACACUGAUCUGCUAGUGCUGUAAUAUUGUAAAUACUGGACUCAGGAACUUUUGUUAGGAAAAAAUUGAAAGAACUUAAGUCUCGAAUGUAAUUGGAAUCUUCACCUCAGAGUGGACAACAGAGGAUUGAGCAUCA
B8: chr8:103229222:103229323:+|3pUTR|ENSG00000164929|unk|total|mutant (ssRNA)
RNA: GGGAGUUCUACAGUCCGACGAUCUAAUUUUCCCGUAUGUCUUGAAACAUGUUCAUCUGGAAGUAUUUUCCUCCAAAGUAAUGCCGCAUGAUUUUUCAAGGAUUGUUAACAUGCCUGGGAUUGGGAAAGACCGGACUAAAGUUGCAACAGAGGAUUGAGCAUCA
B9: ENSG00000107863:be:win_5351|CDS|ENSG00000107863|bound_else_gene|NA|bound_elsewhere_windowed (ssRNA)
RNA: GGGAGUUCUACAGUCCGACGAUCGGAAUCACAAAGUGAAUGCCGAGACUGCUAAAAGGAAAAGCAUCCGGCGCAGACAUACACUAGGAGGGCACAGAGAUGCUACCGAAAUCAGCGUUUUGAAUUUUUGGAAAGUGCAUGAGCCAACAGAGGAUUGAGCAUCA
B10: chr8:22006364:22006465:+|3pUTR|ENSG00000130227|msi1|FALSE|unique (ssRNA)
RNA: GGGAGUUCUACAGUCCGACGAUCUGUUGCUGCUAGUUGUACACAUCUCUAGUUCAGCUCUUGCCCACGGGACACUCAUCAAUUAGGUUUUAUUUUUAUUUCUUUCCUCUACCCCCAGAAACAAGCCUGUUAAUUUUUUUUCCUCAACAGAGGAUUGAGCAUCA
B11: ENSG00000107863:be:win_4101|CDS|ENSG00000107863|bound_else_gene|NA|bound_elsewhere_windowed (ssRNA)
RNA: GGGAGUUCUACAGUCCGACGAUCUUUACUCACCAACAUUGGAAGGACAGGAGUCUCCCCAGGAGAUGUAUCAGAUUCAGCUACUAGUGACUCAACAAAAUCUAAGGGUUCUUGGGGAUCUGGAAAGGAUCAGUAUAGCAGGGACAACAGAGGAUUGAGCAUCA
B12: chr6:46858128:46859523:-|CDS|ENSG00000069122|control|control|control (ssRNA)
RNA: GGGAGUUCUACAGUCCGACGAUCAGCUGUGGUGUGGAAAUCGGUGACCAAGAACCGGACUUCUUAUAUGCGCCACACCUGCAUAGUGAAUAUCGCUGCCUCCCUUCUGGUCGCCAACACCUGGUUCAUUGUGGUCGCUGCCAUCAACAGAGGAUUGAGCAUCA
B13: chr7:50445662:50445763:-|CDS|ENSG00000132436|msi1|FALSE|unique (ssRNA)
RNA: GGGAGUUCUACAGUCCGACGAUCGUUAUCUCAACGGGGAGAUGGUGAGCAUGAAUCUUCUAGAAGGAUAAAAACAGAAUUUUUAGUUCAAUUAGAUGGAGCAACAACAUCUUCUGAAGAUCGUAUCCUAGUGGUGGGAGCAACCAACAGAGGAUUGAGCAUCA
B14: ENSG00000163902:stop:overlap|stop_codon|ENSG00000163902|stop_codon|NA|stop_codon (ssRNA)
RNA: GGGAGUUCUACAGUCCGACGAUCUCAUCUCAGGAAAGCGCCAGGAGCUGGUCACCAAGAUCGACCACAUCCUGGAUGCCCUGUAGCCCCUGCCCGCAUCCUCCAGGGGGCCCAGGGUGCCUGCACUUUGCUGUGGCAGGCAGACAACAGAGGAUUGAGCAUCA
B15: chr10:84150713:84150851:+|CDS|ENSG00000165678|unk|total|mutant (ssRNA)
RNA: GGGAGUUCUACAGUCCGACGAUCUCUUCCACCUACCACCGUGGCUGGUGCCACUCUUUACUCAGUGGCAAUGUACGGUGGAUCCGUUCUUUUCAGCAUGUUCCUUCUGUAUGAUACCCAGAAAGUAAUCAAGCGUGCAGAAGUCAACAGAGGAUUGAGCAUCA
B16: chr11:75587191:75587292:-|CDS|ENSG00000171533|unk|total|mutant (ssRNA)
RNA: GGGAGUUCUACAGUCCGACGAUCACAGCCUCCAAAGAAUCAAGGUCGUACCGUCCCUGAACCUCUGAAGAAUCAAGUUCCUACCGUCCCAGUGCCUCUGAAGGAUCAAGAUCCUCUGGUGCCAGUACCAGCAAAGGACCAAGGCAACAGAGGAUUGAGCAUCA
B17: ENSG00000107863:be:win_6501|3pUTR|ENSG00000107863|bound_else_gene|NA|bound_elsewhere_windowed (ssRNA)
RNA: GGGAGUUCUACAGUCCGACGAUCAUACCAGAUUUGAUAUAAUGUUGUAACAUAGGUGUGUAGAUAGUGGAUCCUGGAUGGAACUGGCUUCUUUAUCGAGAAGAAUAUAAUUCUGCAUGAGGACUUAAUGAAUCCAAACCUGUGCAACAGAGGAUUGAGCAUCA
B18: chr22:21921976:21922077:-|3pUTR|ENSG00000100034|msi1|total|mutant (ssRNA)
RNA: GGGAGUUCUACAGUCCGACGAUCGACUGCAGUGGGCUCGGACCGGCCCAUUGAGGUUUUCCGAAAAGCAGGAUUUGUUUUGUCCGGGAGGCAUGAUUUUGGUGAGAUCUUUCUGGAAGAGUUUUCCGCCUCUUUGUGAUGCUGCAACAGAGGAUUGAGCAUCA
B19: ENSG00000198589:be:win_6701|CDS|ENSG00000198589|bound_else_gene|NA|bound_elsewhere_windowed (ssRNA)
RNA: GGGAGUUCUACAGUCCGACGAUCUGUUUCCUUGGGUCAUCACUAAUUAUGAAUCAGAAGAACUGGAUCUUACCUUGCCCACCAACUUCAGAGAUUUGUCCAAGCCAAUAGGAGCUCUGAACCCAAAAAGAGCAGCAUUCUUCGCAACAGAGGAUUGAGCAUCA
B20: ENSG00000198589:be:win_1351|CDS|ENSG00000198589|bound_else_gene|NA|bound_elsewhere_windowed (ssRNA)
RNA: GGGAGUUCUACAGUCCGACGAUCAUGCUCCAGGAUGUAAAGGCAGUUUUAACACAUUCCAUCCAAAGUGCAAUGCAUUCAAUUGGAGGAGUACAAGUACUAUUUCCACUUUUUGCACAGUUGGAUUACAGGCAAUAUUUGUCUCAACAGAGGAUUGAGCAUCA
B21: chr2:45599705:45599806:-|CDS|ENSG00000068784|msi1|FALSE|unique (ssRNA)
RNA: GGGAGUUCUACAGUCCGACGAUCCUCAUAUGUUCUCUUUGUGGUUUGAUAGAAUAGCUCUGUGGCUAUUGCUGAUACUGCUUUAGAAGACAGAAAAAAUAAAUUGGAUACUGUACAGACUCUGAAAACAGCCAAGACAAAACACAACAGAGGAUUGAGCAUCA
B22: chr16:68014110:68014412:-|CDS|ENSG00000263201|control|control|control (ssRNA)
RNA: GGGAGUUCUACAGUCCGACGAUCAGGCGUGCUCCCAAGAGACGUCAAGCUACGAUAGAGUCAGAUAAAGACCUGGGUUGCUCUAGCCCCAAAAUUCGGCGCUUGGAGCAUCGUGGCAGGAGACUGACCCCACAGAAGCUUGCUCAACAGAGGAUUGAGCAUCA

This is one part of the list.

The experiment has as its target MSI1 full-length (mouse, UniProt Q61474 1-362). Nature of the experiment: nsRBNS (natural sequence RNA bind-n-seq); RBNS binding buffer (assumed for nsRBNS): 25 mM Tris pH 7.5, 150 mM KCl, 3 mM MgCl2, 0.01% Triton X-100, 500 ug/ml BSA, 20 U/ml SUPERase-In, 4 C; UNK is unkempt and MSI1 is Musashi-1; names of the RNAs are library labels; protein concentration not given here; high values mean tight binding.
UniProt Q61474, sequence (Q61474 whole entry): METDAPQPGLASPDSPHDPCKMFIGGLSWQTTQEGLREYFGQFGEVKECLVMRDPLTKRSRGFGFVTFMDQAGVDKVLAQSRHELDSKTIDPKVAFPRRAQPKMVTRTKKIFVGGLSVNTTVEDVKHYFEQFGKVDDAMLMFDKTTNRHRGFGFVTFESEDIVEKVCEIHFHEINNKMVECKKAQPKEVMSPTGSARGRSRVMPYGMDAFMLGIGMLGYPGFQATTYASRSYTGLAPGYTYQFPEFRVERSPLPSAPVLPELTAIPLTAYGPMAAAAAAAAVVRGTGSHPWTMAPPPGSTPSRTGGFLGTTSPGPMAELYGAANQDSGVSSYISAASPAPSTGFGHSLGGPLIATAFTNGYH
Turning to B1, the binding signal stood at 0.687 enrichment R. Then B2, with 0.861 enrichment R. Then B3, with 0.512 enrichment R; and B4, with 0.476 enrichment R; and B5, with 0.235 enrichment R.

For B6, the binding signal was 0.378 enrichment R. Then B7, with 4.38 enrichment R; and B8, with 0.249 enrichment R; and B9, with 0.431 enrichment R. Then B10, with 9.57 enrichment R; and B11, with 2.02 enrichment R. As to B12, the binding signal turned out to be 0.428 enrichment R. Then B13, with 1.55 enrichment R. Then B14, with 1.05 enrichment R. Then B15, with 0.402 enrichment R; and B16, with 0.382 enrichment R; and B17, with 0.986 enrichment R. In turn, B18 came in with a binding signal of 0.367 enrichment R. Then B19, with 0.363 enrichment R; and B20, with 0.2 enrichment R; and B21, with 0.298 enrichment R. Then B22, with 0.338 enrichment R.
